Assay results taken from the supplement of paper PMC3334620.
In all, about 33,000 sequences were measured (“E-score (-0.5 to 0.5)”: median about -0.016, highest 2% from about 0.32 on). The list shows a part of the results.

Each sequence was assayed against T1, Stp1 (UniProt B3LFK1) (assay: PBM E-score (8-mer binding enrichment) (E-score (-0.5 to 0.5)); higher = stronger / more preferred TF binding; most listed sequences are background and not binding sites). Details: protein concentration: 200 nM; construct: GST-full length.
T1 sequence: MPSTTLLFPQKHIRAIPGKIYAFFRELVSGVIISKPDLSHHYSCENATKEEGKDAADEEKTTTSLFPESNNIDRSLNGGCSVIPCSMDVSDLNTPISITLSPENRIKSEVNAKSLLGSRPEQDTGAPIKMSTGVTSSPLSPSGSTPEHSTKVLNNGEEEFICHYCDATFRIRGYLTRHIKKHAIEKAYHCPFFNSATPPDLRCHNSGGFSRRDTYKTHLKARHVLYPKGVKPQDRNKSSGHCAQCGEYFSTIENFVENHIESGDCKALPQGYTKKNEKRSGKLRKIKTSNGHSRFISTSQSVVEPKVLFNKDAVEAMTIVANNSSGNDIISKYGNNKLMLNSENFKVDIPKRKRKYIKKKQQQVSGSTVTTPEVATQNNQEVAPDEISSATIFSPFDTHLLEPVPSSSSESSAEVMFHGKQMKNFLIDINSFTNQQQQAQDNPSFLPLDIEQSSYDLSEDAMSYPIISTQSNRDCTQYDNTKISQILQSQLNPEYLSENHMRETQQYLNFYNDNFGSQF
Protocol: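 Universal 'all 10-mer' protein binding microarrays (Agilent AMADID 015681) probed with GST-tagged S. cerevisiae TFs (full-length or DBD) made by in vitro transcription/translation (PURExpress), about 100-200 nM. Bound TF was detected with fluorescent anti-GST. Each ungapped 8-mer (which stands for itself and its reverse complement) is scored by the PBM enrichment score (E-score), a modified Wilcoxon-Mann-Whitney statistic from -0.5 to +0.5, computed with the Universal PBM Analysis Suite. Scale: above 0.35 generally sequence-specific binding.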

| Sequence | PBM E-score |
| --- | --- |
| CAATGTCG | 0.012 |
| ACTTACAC | 0.0886 |
| GACCATTA | 0.054 |
| AGCGCCTG | -0.0292 |
| CTTAGCGA | -0.0978 |
| GCGTTGCC | 0.14 |
| AGGTAAGG | -0.106 |
| CGAGCCGC | 0.385 |
| ATCCTAAC | 0.0728 |
| ACAAATGA | 0.0786 |
| AGACTACT | -0.0654 |
| GCCGACCA | -0.0352 |
| CATAGGGG | -0.293 |
| GGACGCCA | -0.102 |
| AGGATTAA | 0.0704 |
| CGCGTGAA | 0.206 |
| GAACTGGA | 0.122 |
| TATGAAAA | 0.202 |
| ATGGTCAG | -0.0872 |
| AACATGGT | -0.108 |
| GGAGCTAA | -0.134 |
| CAAACTCC | 0.0727 |

| Sequence | PBM E-score |
| --- | --- |
| GATAGGCA | 0.194 |
| AGAGACAA | -0.0906 |
| TGAGCTAA | -0.0596 |
| CCCCCAGG | -0.462 |
| GTGAAACA | 0.177 |
| ATGATTTC | 0.189 |
| ATCCTGGA | -0.107 |
| GGTCCATA | -0.16 |
| ACTCTGAC | -0.168 |
| AGCCAGAC | 0.0482 |
| AGGTAGTC | -0.173 |
| GGCCTAGA | -0.317 |
| GTAGCGAC | -0.246 |
| GCATTGAA | 0.105 |
| CGACATTA | 0.11 |
| GTAGCCTA | -0.217 |
| CGTAAAAC | 0.109 |
| ACACCCAT | -0.088 |
| CATCTTTC | -0.0695 |
| AACTTACA | 0.0946 |
| CATAAATG | -0.0701 |
| GCTAACGA | 0.0327 |

| Sequence | PBM E-score |
| --- | --- |
| CGTGTCCC | 0.0668 |
| GGCCAGGA | -0.252 |
| ACTCATCG | 0.012 |
| GACAGGAC | -0.13 |
| AAGTAAGA | 0.0481 |
| AAGGCACG | 0.397 |
| GGGGGATA | -0.387 |
| AAATGTCC | -0.229 |
| AAATTCCC | -0.125 |
| AATGGCGT | 0.161 |
| GCGCTACA | 0.211 |
| AACCCACG | -0.09 |
| GTCGTGTA | -0.0401 |
| ATATAGAT | 0.173 |
| AAAATGTG | 0.133 |
| CCGTGATA | 0.139 |
| GCGATGAC | 0.00143 |
| GAGTGGAC | -0.167 |
| AATATCCA | 0.111 |
| AGTATGAC | 0.1 |
| TCACCCCA | 0.0126 |
| AGGTTGGG | -0.125 |

| Sequence | PBM E-score |
| --- | --- |
| AATCCACA | -0.0508 |
| CCGTCAAC | -0.0749 |
| CACCCCAG | -0.151 |
| GTAGCAAA | 0.0195 |
| CATGTTAC | 0.0487 |
| CAGTTGCA | 0.0669 |
| GGAAGATA | -0.0545 |
| CGCACCTC | -0.0966 |
| AAGCTAGA | -0.119 |
| ATAGCTGA | -0.155 |
| GATTTCCA | -0.0499 |
| AAACCAGG | -0.0379 |
| ACCCTCAC | -0.307 |
| CGACAGCC | -0.0511 |
| AAGACATC | -0.229 |
| CACGCAGG | 0.0824 |
| GTTAATGA | -0.114 |
| CACTCTTC | -0.0549 |
| ATCGGCAT | 0.238 |
| TAGCGTCA | -0.0187 |
